Data: the RNAGym collection of RNA variant scans (doi:10.7554/elife.90254)
Read counts are not given, so values of variants with three or more changes are uncertain.

B1: LINE1-mini (parent)
chain: GGCAGAGCUCAACACAGCGUGGCAAAGUGGCUGUGGCUAGACUGCC

Variants of: B1
Assay: self-cleavage, relative activity (ratio to wild type); higher = more cleavage; in vitro, sequencing; the parent is a self-cleaving ribozyme

Variant	self-cleavage
C8U C18A G21A	0.29
U9A C10U A12C A41G	0
C8U U9A C15U C18U G29C	0.03
C8U G19C U38C G40C	0.02
U9A C10U G21U	0.03
U9A A14G C46G	0.1
U9A C15A A16G C31U G36C A41G C42A	0
C8U G21A G22A U32C	0.04
U9A A11U U32G	0.03
C8U U20G G35C	0.01
C8U G21U C42G	0.07
U9A A16C U20C	0.09
U9A C31U C46U	0.03
U9A A26U G27U	0.23
C8U C18G U28G C31A C45G	0.07
C8U G17C G33U A39C	0.01
C8U U28C G29A U43C	0.05
U9A A11G A12C U28A U38G	0.02
U9A A14U U38A C42A	0.19
U9A C10G G40C	0.01
C8U G17C G30U	0.19

Variant	self-cleavage
C8U U9A G22C G30C C45A	0.4
C8U G27A A41G C42G G44C	0.1
C8U G22U G33U U38A	0.01
U9A C13U U28C A39U	0.17
U9A C31G C37A	0.03
U9A C23U U28G G44A	0.12
U9A C10G G30C	0.02
U9A A12C U32C	0.05
C8U G22A G35C U43A	0.04
U9A C10G G19C G36U	0.04
C8U G17U G35C	0.18
C8U G30C C37U	1.88
U9A C18A G40U	0.07
U9A A11G C18A A25G G33A G36A C37G	0
U9A A16C G35C C45U	0.02
C8U U9G U34A	0.06
C8U G22U C45U	0.12
U9A C37U U43A	0.01
U9A C10A G22A G30C G35C	0.02
U9A A39U G40U C45A	0.08
C8U G17U U34A G44C	0.02

Variant	self-cleavage
C8U U9G C13A	0.13
C8U U9C G17U G27A U28A U32C	0.06
C8U G17A G21C G27C C31U G35U	0.09
U9A A16G G17A G22A U32G G40A G44U	0.02
U9A A11U C13A G27U	0.04
U9A A11G C13G U34A	0
U9A A26G C46A	0.18
U9A G17C A26C G30C G33U	0.02
U9A C10A G40U	0.04
U9A C10A G22U G29A G35C G36A G44A	0.03
U9A C10A U20C U32G A41U	0.03
C8U U9A A12G C15U G21C G44A	0.19
U9A A12C A16C	0.03
C8U C18G A24U G27C A41U U43G	0.09
C8U C18G U28C A39G	0.02
C8U G21A C42G C45U	0.27
C8U G22C C31G	0.1
C8U C18G A41U U43G	0.04
U9A A26G U38A	0.08
U9A C13U A16U G19U C42U	0.19
C8U U9G A16U G33A U38A	0.07

Variant	self-cleavage
U9A C15G G21U A25C C46A	0.32
U9A A24U A26G G36C C42G G44U	0.05
C8U C15G U28G G35C	0.08
U9A C13A U20C G27C G30U	0.05
U9A A14U G21A G33A C42G	0.02
U9A C13A A14G U32A	0.26
U9A A26G U28A	0.86
U9A C23G G33C U34A	0.27
C8U U9C A25G G27A	0.03
C8U G22U C46A	0.31
C8U C23A G27C	0.19
C8U U20G G29A A39G	0.02
U9A A14C A26C G40U G44C	0.01
C8U U20C G22C C23U G35C	0.31
U9A A16U G17U U28A C42A	0.04
U9A A16U U32G U43C	0.04
C8U G22C A39C G44A	0.13
U9A G17A G33U A39C	0.02
C8U C15U C42U	0.05
U9A A16U C18A G30A U32C	0.09
